Source: patent publication US20250376539A1 (KIRA PHARMACEUTICALS SUZHOU, published 2025)

Columns and labels:
[1] = molecular target: T1, recombinant cynomolgus (cyno) complement C2 (XP_005553508.1), C-terminal 6His-tag, made in house (CHO cell … (cynomolgus monkey (Macaca fascicularis), UniProt P06681 21-752 (human entry))); test: BLI (Gator), antibody on probe; 600 s association at pH 7.4, 600 s dissociation at pH 5.8
T1 construct: also called cyno C2; Cyno C2
T1 chain: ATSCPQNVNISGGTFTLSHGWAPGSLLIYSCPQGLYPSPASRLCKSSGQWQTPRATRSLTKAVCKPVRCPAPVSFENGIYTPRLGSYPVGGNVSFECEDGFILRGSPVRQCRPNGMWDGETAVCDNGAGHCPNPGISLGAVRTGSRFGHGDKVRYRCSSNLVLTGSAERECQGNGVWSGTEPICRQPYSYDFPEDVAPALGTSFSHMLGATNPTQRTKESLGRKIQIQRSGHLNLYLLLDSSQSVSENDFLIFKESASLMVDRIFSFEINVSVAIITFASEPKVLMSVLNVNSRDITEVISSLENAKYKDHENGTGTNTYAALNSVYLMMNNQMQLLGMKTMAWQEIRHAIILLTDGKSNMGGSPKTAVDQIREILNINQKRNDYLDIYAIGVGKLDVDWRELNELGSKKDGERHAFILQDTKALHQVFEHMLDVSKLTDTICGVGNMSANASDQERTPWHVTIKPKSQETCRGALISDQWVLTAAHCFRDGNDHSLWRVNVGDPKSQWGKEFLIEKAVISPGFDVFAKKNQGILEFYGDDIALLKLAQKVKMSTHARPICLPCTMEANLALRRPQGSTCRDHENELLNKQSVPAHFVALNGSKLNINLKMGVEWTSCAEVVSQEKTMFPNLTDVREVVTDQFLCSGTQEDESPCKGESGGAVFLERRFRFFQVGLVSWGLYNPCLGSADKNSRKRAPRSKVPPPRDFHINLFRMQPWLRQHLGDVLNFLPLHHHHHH
Protocol: (§1) The histidine mutant constructs in Table 4 were tested for their pH-dependent dissociation from human C2. Probe-immobilized anti-C2 antibodies were incubated with C2 at pH 7.4 for 600s, followed by a 600s dissociation period in K Buffer at pH 7.4 or pH 5.8. The data were processed and analyzed by the Gator evaluation software.
(§2) Non-fusion mAb were used for comparison.

[2] = molecular target: T2, recombinant human complement C2 (NP_000054.2), C-terminal 6His-tag, made in house (CHO cell expression) (human, UniProt P06681 21-752); test: as above
T2 construct: a linker before the tag is not described; also called human C2; Human C2
T2 sequence: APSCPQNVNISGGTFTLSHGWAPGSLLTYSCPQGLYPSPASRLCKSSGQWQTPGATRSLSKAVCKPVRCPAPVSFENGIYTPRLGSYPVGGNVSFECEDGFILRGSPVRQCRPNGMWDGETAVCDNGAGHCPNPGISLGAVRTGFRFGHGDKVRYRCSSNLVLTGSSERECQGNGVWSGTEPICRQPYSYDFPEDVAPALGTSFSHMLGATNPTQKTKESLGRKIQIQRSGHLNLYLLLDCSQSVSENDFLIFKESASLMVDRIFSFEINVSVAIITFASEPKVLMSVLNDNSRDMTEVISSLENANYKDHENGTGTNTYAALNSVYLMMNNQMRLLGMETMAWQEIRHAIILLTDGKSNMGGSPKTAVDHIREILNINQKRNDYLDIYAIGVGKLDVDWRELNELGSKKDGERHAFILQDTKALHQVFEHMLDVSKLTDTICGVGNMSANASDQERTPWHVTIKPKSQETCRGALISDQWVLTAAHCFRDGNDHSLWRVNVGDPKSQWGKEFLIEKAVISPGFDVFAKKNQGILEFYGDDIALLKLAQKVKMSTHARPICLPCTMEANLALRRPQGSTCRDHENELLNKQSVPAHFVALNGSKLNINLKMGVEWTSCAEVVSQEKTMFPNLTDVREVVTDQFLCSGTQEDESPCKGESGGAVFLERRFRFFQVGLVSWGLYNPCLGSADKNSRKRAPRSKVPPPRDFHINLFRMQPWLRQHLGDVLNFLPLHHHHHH
Protocol: as §1, §2

B1: 69.44FH (Factor H 1-5 fusion with 69.44; FH1-5 fused to the heavy chain C-terminus) (other)
heavy: QVQLVQSGAEVKKPGASVKVSCKASGYSFTTYYMYWVRQAPGQGLEWMGIITPSGGSTTYAQKFQDRVTMTRDASTTTVYMELSSLRSEDTAVYYCARGYEGSYGFDHWGQGTLVTVSSASTKGPSVFPLAPCSRSTSESTAALGCLVKDYFPEPVTVSWNSGALTSGVHTFPAVLQSSGLYSLSSVVTVPSSSLGTKTYTCNVDHKPSNTKVDKRVESKYGPP[human IgG4 Fc with S228P M428L N434A (EU numbers) not shown]EDCNELPPRRNTEILTGSWSDQTYPEGTQAIYKCRPGYRSLGNIIMVCRKGEWVALNPLRKCQKRPCGHPGDTPFGTFTLTGGNVFEYGVKAVYTCNEGYQLLGEINYRECDTDGWTNDIPICEVVKCLPVTAPENGKIVSSAMEPDREYHFGQAVRFVCNSGYKIEGDEEMHCSDDGFWSKEKPKCVEISCKSPDVINGSPISQKIIYKENERFQYKCNMGYEYSERGDAVCTESGWRPLPSCEEKSCDNPYIPNGDYSPLRIKHRTGDEITYQCRNGFYPATRGNTAKCTSTGWIPAPRCTLKP
light: SYELTQPPSVSLSPGQTASITCSGDKLGNKYTCWYQQKPGQSPVLVIYQDNKRPSGIPERFSGSNSGNTATLTISGTQAMDEADYYCQTWDSSTAVFGGGTKLTVLGQPKAAPSVTLFPPSSEELQANKATLVCLISDFYPGAVTVAWKADSSPVKAGVETTTPSKQSNNKYAASSYLSLTPEQWKSHRSYSCQVTHEGSTVEKTVAPTECS
notes: Antibody-factor H fusion protein
[1]
  Dissociation (%) pH 5.8: 6.05%
[2]
  Dissociation (%) pH 5.8: 0.93%
